Hit rate of the full screen: of about 52,000 compounds, about 1,700 (3.3%) were called active. Cut-off read from the data, not from the text of the source: active = survival mostly below about 52% (no sharp cut-off); inactive = mostly above about 56%. Some of the results follow.

This test relates to Wild type. The experiment in a line: S. aureus survival, RN4220 and DeltatarO strains – OD600, teichoic acid synthesis inhibitors, primary screen (AID 463173). As to conditions: S. aureus RN4220 wild type/DeltatarO growth, OD600, 18 h, active compounds read low, screened at 18.75 µg/mL (by protocol).
As to `CCSc1nnc(NC(=O)c2cc(=O)c3cc(C)c(C)cc3o2)s1`, the survival is inactive: 84%.
`O=C(Nc1cccc(C(F)(F)F)c1)c1cc(-c2ccc3c(c2)OCCO3)on1`: the survival is inactive: 111%.
On to `Cc1ccc(N(CC(=O)Nc2ccc(Br)cc2)S(=O)(=O)c2cccs2)cc1`, for which the survival is inactive: 81%.
Turning to `CCc1ccccc1NC(=O)c1ccc2nc(C(C)C)oc2c1`, the survival is inactive: 75%.
Then `COc1ccc(S(=O)(=O)n2nc(C)c(S(=O)(=O)N3CCC(C)CC3)c2C)cc1OC`, with inactive: 81%.
For the molecule `Cc1ccccc1NC(=O)CC1COc2ccccc2O1` (centres undefined), the survival was inactive: 111%.
On to `O=C(NCCc1ccc(F)cc1)C(=O)NCC(c1ccco1)S(=O)(=O)c1cccs1` (centres undefined), for which the survival was inactive: 53%.
`CC(C)CCNC(=O)CCC(=O)NNc1nc2ccccc2c2nc(-c3ccccc3)nn12`: the survival was inactive: 145%.
In the case of `O=c1c(Cl)c(NCCO)ncn1-c1ccccc1`, the survival is inactive: 112%.
Regarding `COc1cc(OC)cc(C(=O)N2CC(=O)Nc3ccc(Cl)cc3C2c2ccccc2)c1` (centres undefined), the survival was inactive: 80%.
Turning to `O=C(Nc1nnc2n1CCS2)c1ccccc1C(F)(F)F`, the survival is inactive: 92%.
With `O=C(Nc1ccc(Cl)c(C(F)(F)F)c1)C(Cc1ccccc1)NS(=O)(=O)c1ccc(Br)s1` (centres undefined), the survival was inactive: 84%.
Take `Brc1cccc(-c2cnn3c(-c4ccccc4)cc(-c4ccccc4)nc23)c1`: the survival is inactive: 71%.
As to `COc1ccc(C2=C(C)C(N3CCC(C(=O)Nc4ccc(F)cc4C)CC3)=NS2(=O)=O)cc1`, the survival was inactive: 59%.
On to `CCC(C)(C)n1nnnc1C(c1ccccc1OC)N1CCN(C(=O)c2ccco2)CC1` (centres undefined), for which the survival is inactive: 105%.
`O=C1CC(N2CCCC2)C(=O)N1c1ccccc1` (centres undefined): the survival was inactive: 96%.
With `COc1cccc(C(=O)NCC(c2ccc3c(c2)OCO3)N2CCOCC2)c1` (centres undefined), the survival is inactive: 118%.
`CCOc1ccc(NC(=O)C(=O)NCc2ccco2)cc1`: the survival is inactive: 76%.
Turning to `CCN(CC)C(=O)CN1C(=O)/C(=C/c2ccccc2)SC1=S`, the survival is inactive: 117%.
Regarding `O=C(NCc1ccccc1)C(=O)NCC(c1cccs1)S(=O)(=O)c1ccccc1` (centres undefined), the survival is inactive: 64%.
In the case of `CSc1nc(C)c2cc(C)ccc2n1`, the survival is inactive: 119%.
For the molecule `COc1ccc2cc3cc(C(=O)NCc4ccccc4OC)oc3nc2c1`, the survival was inactive: 80%.
Regarding `Cc1ccc(N(Cc2cccs2)C(=O)c2ccccc2Cl)cc1`, the survival was inactive: 88%.
For the molecule `Cc1ccc(-c2nc3ncccc3o2)cc1NC(=O)c1ccc(-c2ccc(Cl)cc2)o1`, the survival is inactive: 73%.
On to `Cc1cccc(N2CCN(S(=O)(=O)c3csc(C(N)=O)c3)CC2)c1C`, for which the survival was inactive: 81%.
In the case of `COc1ccc2cc(C#N)c(=S)[nH]c2c1`, the survival was inactive: 95%.
Then `Cc1cccc(NC(=O)CSc2nc(-c3ccco3)cc(C(F)(F)F)n2)c1C`, with inactive: 81%; and `C#Cc1ccc(C#C)cc1`, with inactive: 111%.
Turning to `CCOC(=O)c1ccc(NC(=O)c2cc3sccc3n2Cc2ccc(Cl)cc2)cc1`, the survival is inactive: 87%.
To `CC1(NS(C)(=O)=O)CC=CC1` belongs inactive: 116%; to `O=C(Nc1nnc2n1CCS2)c1ccc(F)cc1F`, inactive: 84%; to `O=C(c1ccccc1Cl)N1CCCCC1CCN1CCCCC1` (centres undefined), inactive: 106%.
Consider `COc1ccc(C)cc1NC(=O)Cn1c(=O)n(Cc2nc(C)no2)c(=O)c2ccccc21`, for which the survival was inactive: 85%.
With `COc1ccc(NC(=O)C(C)N(c2ccccc2)S(C)(=O)=O)cc1` (centres undefined), the survival was inactive: 71%.
Regarding `COc1ccc(CCNC(=O)c2ccc(Cn3c(=O)c4ccccc4n(Cc4cccc(Cl)c4)c3=O)cc2)cc1OC`, the survival is inactive: 95%.
For `CCOc1ccccc1NC(=O)C(CC)Sc1nc2ccncc2[nH]1` (centres undefined), the survival is inactive: 120%.
As for `O=C(Nc1ccc(C(F)(F)F)cc1)N1C2CCC1CC(O)(c1cccnc1)C2` (centres undefined), the survival is inactive: 73%.
For `Cc1cccc(Nc2nc3nonc3nc2N/N=C\c2cccs2)c1C`, the survival was inactive: 96%.
As for `Cc1nn2c(=O)cc(COC(=O)c3ccccc3NC(=O)C(C)Oc3ccccc3)nc2s1` (centres undefined), the survival was inactive: 74%.
In the case of `CCOc1ccc(CN2CCc3nc(Nc4ccc5c(c4)OCCO5)ncc3C2)cc1`, the survival was inactive: 80%.
Turning to `COc1ccc(NCc2cc3cc4c(cc3n(CC(=O)Nc3cc(C)ccc3C)c2=O)OCCO4)cc1`, the survival was inactive: 70%.
As to `CC(C)c1ccc(NS(=O)(=O)c2ccc3nc(-c4ccccc4)[nH]c3c2)cc1`, the survival was inactive: 63%.
On to `CC(Sc1nnc(-c2ccco2)n1-c1ccccc1)C(=O)NC(c1ccccc1)c1ccccc1` (centres undefined), for which the survival is inactive: 139%.
On to `Cn1c(=O)c2cc(C(=O)NCCCN3CCN(c4ccccc4F)CC3)sc2c2ccccc21`, for which the survival is inactive: 78%.
To `Cc1ccc(-n2c(=O)c3ccc(C(=O)NCc4ccco4)cc3n(Cc3ccccc3C#N)c2=O)cc1` belongs inactive: 130%.
Regarding `O=C(OCC1CCNCC1)c1ccc(F)cc1`, the survival was inactive: 103%.
In the case of `Cc1ccc(-c2cn(-c3cccc(Cl)c3)c(S(=O)(=O)CC(=O)Nc3ccccc3F)n2)cc1`, the survival was inactive: 70%.
Then `CCN(CC)c1cc2c(cc1F)c(=O)c(S(=O)(=O)c1cccc(C)c1)cn2C`, with inactive: 112%.
To `CCOc1ccc(C2CC(=O)N(c3cccc(F)c3)C3=C2C(=O)OC3)cc1` (centres undefined) belongs inactive: 160%; to `Cc1ccc(-n2nc3c(=O)n(CCCC(=O)NCCc4ccccc4Cl)nc(C)c3c2C)cc1`, inactive: 77%.
As to `COc1ccc(NC(=O)c2ccc3c(c2)sc2nc(-c4ccc(OC)cc4)cn23)cc1`, the survival was inactive: 85%.
`Cc1ccc(NC(=O)Cn2c(=O)n(Cc3ccco3)c(=O)c3ccccc32)c(C)c1`: the survival is inactive: 90%.
To `Cc1ccc2c(c1)c1c(c(=O)n(-c3cccc(Cl)c3)c(=O)n1CC(=O)N1CCCC1)n2C` belongs inactive: 73%; to `COc1cc(C2c3c(oc4cc(C)c(C)cc4c3=O)C(=O)N2CCCN2CCOCC2)ccc1O` (centres undefined), inactive: 77%.
`CCOC(=O)c1cc(S(=O)(=O)Nc2ccc(Br)c(C)c2)[nH]n1`: the survival is inactive: 67%.
In the case of `Cc1n[nH]c(C)c1N1C(=O)c2cccc3c(N4CCCCC4)ccc(c23)C1=O`, the survival is inactive: 116%.
`Cc1c(C(=O)N2CCC(c3nc4ccccc4s3)CC2)oc2cc(Br)ccc12`: the survival was inactive: 116%.
To `CCCCn1c(SCC(=O)OC)nc2ccccc2c1=O` belongs inactive: 103%.
Regarding `CCOc1ccc(-n2c(SCc3nc(-c4ccc(OC)cc4)no3)nnc2-c2ccncc2)cc1`, the survival was inactive: 79%.
